Structures are written as SMILES. The campaign covered roughly 150,000 compounds. About 540 (0.36%) showed an effect of 50% or more. The list shows a part of the results.

In the assay the test system is Plasmodium falciparum. Briefly: Primary screen in NF54 nanoGlo assay, in single point, at 2uM, 72h; a lower Z score goes with more inhibition. It is filed as functional, Erythrocyte. Conditions: timepoint 72 hour.
`Cc1c(-c2nn(-c3ccccc3)c(-c3cnn(C)c3C)c2Cl)cnn1C`: the “% Inhibition” value is on record as 39% and the Z score is recorded as -4.45.
For `CC(C)O[C@@]1(Cn2nnnc2C=Cc2ccccc2)CCOC1` the same measures were 15% and -1.9.
For `CC(C)CN1C[C@@H](NCc2ccc(F)c(F)c2)C[C@H]1C(=O)NCCc1ccccc1F` the same measures were -12% and 1.44.
For `COc1cc(OC)cc(C(=O)N2c3ccccc3[C@](C)(c3ccccc3)CC2(C)C)c1` the same measures were 5% and -0.65.
Turning to `C[C@@H]1Oc2ccc(NC(=O)NCc3ccccc3)cc2NC1=O`, the “% Inhibition” value is -4% and the Z score is 0.72.
The matching figures for `CO[C@H]1CCOC[C@@H]1NC(=O)Nc1ccncc1N(C)C`: -9% and 1.53.
The matching figures for `CC(C)c1nnc(CNC(C)C2CCCO2)n1C` (centres undefined): 0% and -0.06.
The matching figures for `CCN(CC)[C@@]1(c2nnnn2C2CCCC2)CCN(C(=O)c2cccnc2)C1`: 8% and -1.04.
As for `CCS(=O)(=O)NC(C)C1CC2CCC1C2` (centres undefined), the “% Inhibition” value is -6% and the Z score stood at 0.78.
On to `CCc1ccccc1C(=O)N1C[C@@H](CN2CCCN(C)CC2)[C@@H](CO)C1`, for which the “% Inhibition” value is reported as -5% and the Z score amounted to 0.46.
For `Cc1nc(-n2nc(C)c(Cc3ccccc3)c2C)sc1C(=O)N1CCCCC1` the same measures were -1% and 0.12.
The matching figures for `c1ccc(COCc2cn(C[C@H]3CNCCO3)nn2)cc1`: 2% and -0.41.
For the compound `Cc1ccc(N(C2CCN(Cc3cccs3)CC2)S(=O)(=O)c2ccc(F)cc2)cc1F`, the “% Inhibition” value is -4% and the Z score is recorded as 0.35.
The matching figures for `c1ccc(CNc2nc(N3CCCC3)c3nn[nH]c3n2)cc1`: -17% and 2.57.
The matching figures for `CCCc1nc(C)c(C(=O)N2CC(OC)CC2c2nc(-c3cccnc3)c[nH]2)s1` (centres undefined): -11% and 0.98.
As for `Cn1nnc2c(N3CCN(S(=O)(=O)c4ccc5ccccc5c4)CC3)ncnc21`, the “% Inhibition” value was -7% and the Z score amounted to 1.08.
As to `Cc1cc(NC(=O)C2CCC(C3CC3)CC2)n2ncnc2n1` (centres undefined), the “% Inhibition” value is -7% and the Z score is given as 0.83.
For `CN(c1cccnn1)C(=O)[C@H]1CC[C@H](C2CCC2)CC1` the same measures were -10% and 1.99.
The matching figures for `CCc1oc(C(=O)NC(C)(C)CO)cc1C`: -9% and 1.21.
Take `Cc1c(C(=O)Nc2ccccc2NC2CCCCC2)oc2ccccc12`: the “% Inhibition” value was -2% and the Z score came out at 0.39.
With `CC(C)N1C[C@@H](c2nc(-c3ccsc3)c[nH]2)CC1=O`, the “% Inhibition” value is given as -1% and the Z score was found to be 0.21.
For `COCCN1C[C@]2(CCCN(C(=O)c3cn[nH]c3)C2)CCC1=O` the same measures were -2% and 0.4.
For `O=C(NCCn1ccnn1)N[C@H]1CCc2c1ccc(Cl)c2Cl` the same measures were -6% and 1.03.
As for `CC[C@H](C)Cc1n[nH]c(CCn2nc(C)cc2C)n1`, the “% Inhibition” value is recorded as -19% and the Z score was determined as 2.6.
The matching figures for `O=C(NCC(F)(F)F)[C@H]1CCCN(CCc2ccncc2)C1`: 5% and -0.96.
As to `Cc1nn(-c2ncc(NC(=O)c3ccco3)cn2)c(C)c1C`, the “% Inhibition” value is on record as -11% and the Z score is reported as 1.64.
The matching figures for `CCOc1ccc(S(=O)(=O)N(C)C)cc1NCc1cc2ccccc2o1`: 12% and -1.48.
The matching figures for `CC(C)Cc1ncc2c(n1)CN(c1noc(C(C)C)n1)C2`: 11% and -1.46.
Turning to `Cc1c(CCC(=O)N[C@@H](C)C2CC2)c(=O)[nH]c2c1c(=O)[nH]n2C`, the “% Inhibition” value is -7% and the Z score was 0.81.
For `Cc1ccccc1OC1CN(C(=O)NC2CCN(C3CCOCC3)CC2)C1` the same measures were 3% and -0.52.
The matching figures for `C=CCOC[C@@H](O)CN(CCC)Cc1c(-c2ccccc2)noc1N1CCCC1`: -2% and 0.3.
The matching figures for `CC(C)(C)OC(=O)N1CCN(c2nnc(NC(=O)c3c(F)cccc3F)[nH]2)CC1`: -14% and 1.7.
Regarding `Cc1nsc(N2CCC[C@H](CNS(C)(=O)=O)C2)c1C#N`, the “% Inhibition” value is listed as -21% and the Z score worked out at 2.26.
For `O=C(Nc1ccncc1)OC1CCCCC1` the same measures were 34% and -3.83.
For `CCN(CCCNc1nc(C)cc(OC)n1)S(C)(=O)=O` the same measures were 3% and -0.65.
The matching figures for `O=S(=O)(c1cccc2nsnc12)N1CC(Nc2ncccn2)C1`: -20% and 2.33.
`CCN(C[C@H]1CCN(C(=O)Nc2cccc(C)n2)C1)CC(F)(F)F`: the “% Inhibition” value is recorded as -10% and the Z score was 1.28.
For `COc1cc(NC(=O)N[C@@H](CO)C(C)(C)C)sn1` the same measures were -6% and 1.32.
For `C[C@H]1CN(C)c2ccccc2CN1C(=O)NCc1ccc(OC(F)F)cn1` the same measures were 1% and -0.1.
With `CN(C)CCN(C)CC[C@H]1CN(C(=O)c2ccc(C(F)(F)F)cc2)CC[C@H]1CC(=O)O`, the “% Inhibition” value turned out to be 9% and the Z score is given as -1.
For `COCc1nc2n(n1)C[C@@H](Nc1ccc(Br)cn1)CC2` the same measures were -3% and 0.22.
Regarding `Cc1ccc(C(=O)N2CC(C)CC(C)C2)cc1NC(=O)C1CCS(=O)(=O)C1` (centres undefined), the “% Inhibition” value was -11% and the Z score was 1.69.

For orientation: % Inhibition means the change of the read-out against control, counted positive when it falls.

The values above are taken from ChEMBL document CHEMBL4888484, “Replenishing the malaria drug discovery pipeline: Screening and hit evaluation of the MMV Hit Generation Library 1 (HGL1) against asexual blood stage Plasmodium falciparum ,using a nano luciferase reporter read-out” (2022).
